From article PMC4336329 (PLoS ONE, 2015)
Screen size: about 310,000 compounds; about 2,200 (0.71%) showed an effect of 50% or more. Effects have a minus sign here. Some of the results follow.

These compounds were tested against human ether-à-go-go-related gene (hERG) potassium channel (human, UniProt Q12809) (assay: primary screen, population patch clamp on CHO cells stably expressing hERG).
Sequence of human ether-à-go-go-related gene (hERG) potassium channel (Q12809 whole entry, looked up): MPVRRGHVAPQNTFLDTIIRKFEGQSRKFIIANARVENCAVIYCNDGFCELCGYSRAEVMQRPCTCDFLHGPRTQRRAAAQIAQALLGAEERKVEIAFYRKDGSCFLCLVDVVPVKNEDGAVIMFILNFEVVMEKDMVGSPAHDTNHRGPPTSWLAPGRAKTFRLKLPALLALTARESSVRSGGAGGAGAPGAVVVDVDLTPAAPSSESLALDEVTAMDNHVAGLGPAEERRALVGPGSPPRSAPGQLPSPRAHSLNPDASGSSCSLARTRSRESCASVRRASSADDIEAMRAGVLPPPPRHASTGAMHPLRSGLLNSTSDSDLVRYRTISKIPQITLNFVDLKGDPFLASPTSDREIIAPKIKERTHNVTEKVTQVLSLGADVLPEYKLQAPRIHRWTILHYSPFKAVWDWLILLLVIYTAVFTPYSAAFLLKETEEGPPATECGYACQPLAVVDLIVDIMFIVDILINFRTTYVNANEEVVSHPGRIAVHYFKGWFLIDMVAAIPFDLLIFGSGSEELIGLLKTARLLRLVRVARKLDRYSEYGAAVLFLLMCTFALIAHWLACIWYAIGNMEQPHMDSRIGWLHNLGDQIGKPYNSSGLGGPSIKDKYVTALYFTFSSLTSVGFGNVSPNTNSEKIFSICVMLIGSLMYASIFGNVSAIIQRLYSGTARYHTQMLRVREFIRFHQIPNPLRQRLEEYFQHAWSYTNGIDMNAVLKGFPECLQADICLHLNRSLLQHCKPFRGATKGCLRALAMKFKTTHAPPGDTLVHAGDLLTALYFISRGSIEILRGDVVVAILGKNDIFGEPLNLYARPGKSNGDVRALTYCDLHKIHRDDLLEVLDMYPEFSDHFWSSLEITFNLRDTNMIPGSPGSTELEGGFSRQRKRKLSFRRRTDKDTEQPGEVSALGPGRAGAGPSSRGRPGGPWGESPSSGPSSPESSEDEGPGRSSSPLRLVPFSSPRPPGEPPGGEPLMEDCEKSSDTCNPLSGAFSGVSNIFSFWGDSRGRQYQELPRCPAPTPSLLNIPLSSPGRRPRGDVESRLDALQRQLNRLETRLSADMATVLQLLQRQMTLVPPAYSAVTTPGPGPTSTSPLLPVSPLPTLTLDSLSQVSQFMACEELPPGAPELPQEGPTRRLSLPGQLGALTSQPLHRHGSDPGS

Row | Compound | hERG current change (%, negative = inhibition) at 1uM [%]
1 | O=C(CCc1ccccc1)NCC(c1ccco1)N1CCc2ccccc21 (centres unmarked) | -13.8
2 | Cc1ccc(NC(=O)Cn2cnc3ccccc32)cc1C | 6.29
3 | C#CCOC(=O)C(NC(=O)c1ccccc1)=C(C)C | 7.09
4 | O=C(/C=C/c1ccc2c(c1)OCO2)Nc1nc2ccc(F)cc2s1 | 16.3
5 | CCCn1c(SCC(=O)c2c[nH]c3ccccc23)nnc1-c1ccncc1 | 4.77
6 | CC(C)=CCc1c(O)cc(O)c2c(=O)c3c(CC=C(C)C)c(O)ccc3oc12 | 15.1
7 | COc1ccc2nc(NC(=O)c3ccccc3F)sc2c1 | 5.5
8 | CCOC(=O)C(=NCCCN(C)C)NNc1ccc(Br)cc1 | 2.69
9 | Cl.O=C1c2cccc3cccc(c23)C(=O)N1CC1CCN(CC(O)COc2ccc3ccccc3c2)CC1 (centres unmarked) | -14.5
10 | COc1ccc(C(C(=O)NC2CCCC2)N(C(=O)c2ccco2)c2cc3c(cc2C(C)=O)OCO3)cc1OC (centres unmarked) | 14.7
11 | COC(=O)c1ccc(Cl)c(NC(=O)CSc2nnc(-c3ccncc3)o2)c1 | 9.92
12 | CSc1ccccc1NC(=O)COC(=O)c1ccccc1O | 4.55
13 | O=C(CSc1nnc(Cc2cccs2)n1C1CCCCC1)N1CCCc2ccccc21 | 24.3
14 | COc1cc(OC)cc(-c2c(C#Cc3ccsc3)c3cc(-c4cnc(OC)nc4)ccc3n2C)c1 | 11.4
15 | CC(C)c1ccc(N(CC(=O)NCc2ccc(F)cc2)C(=O)c2snc(C(N)=O)c2N)cc1 | 5.83
16 | COc1ccc(CNC(=O)COc2ccc(S(=O)(=O)NC(C)C)cc2)cc1 | 13.5
17 | CCC(C(=O)NC1CCCC1)N(C(=O)Cn1nnc(-c2ccc(C)o2)n1)c1cccc(O)c1 (centres unmarked) | 12.7
18 | COc1ccc(/C(N)=N/OC(=O)CC2CCCCC2)cc1OC | 15.7
19 | O=C1c2ccccc2NC(c2ccc(Br)o2)N1O (centres unmarked) | 7.93

Row | Compound | hERG current change (%, negative = inhibition) at 1uM [%]
20 | Cc1cc(C)cc(C(=O)N2CC(C)SC2=Nc2cccc(S(=O)(=O)N(C)C)c2)c1 (centres unmarked) | -11.8
21 | CCC(=O)Nc1ccc(C(=O)NNC(=O)C(c2ccccc2)c2ccccc2)cc1 | 9.4
22 | O=S(=O)(NCC(c1ccc2c(c1)OCO2)N1CCOCC1)c1ccc(F)cc1 (centres unmarked) | 8.44
23 | COc1cc(NC(=S)Nc2cccnc2)cc(OC)c1OC | 14.1
24 | COc1ccc(C(=O)NNC(=O)c2ccc(S(=O)(=O)N3CC(C)OC(C)C3)cc2)cc1 (centres unmarked) | 10.9
25 | COc1ccc2c(c1)c(CC(=O)OCC(=O)N(C)C)c(C)n2C(=O)c1ccc(Cl)cc1 | 3.65
26 | CC(C)c1ccc(/C=C/C(=O)N2CCOCC2)cc1 | 8.02
27 | Cc1ccc(C2CC(c3ccccc3Cl)n3nc(N)nc3N2)cc1 (centres unmarked) | 6.96
28 | COc1ccc(CCN=CC2=C(O)CC(C)(C)CC2=O)cc1 | 13
29 | Nc1nc(SCC(=O)Nc2ccc(Cl)c(S(=O)(=O)N3CCOCC3)c2)n[nH]1 | 10.2
30 | O=C1c2ccccc2NC(c2ccc3c(c2)OCO3)N1O (centres unmarked) | 9.49
31 | O=[N+]([O-])c1ccc(CN2CCN(Cc3c[nH]c4ccccc34)CC2)cc1 | -73.7
32 | Cc1[nH]n(-c2ccccc2)c(=O)c1CCO | 9.44
33 | O=C(CSc1nnc(-c2ccncc2)n1-c1ccc(F)cc1)NC(=O)NCc1ccco1 | -10
34 | COc1ccccc1CCC(=O)Nc1ccc2c(c1)CN(CCCn1cccn1)CC2 | 10.1
35 | Cc1ccc(OCCSc2nnc(-c3cccs3)n2C)cc1 | -10.8
36 | COC(=O)CSc1nnc(CNC(=O)c2ccc(S(=O)(=O)N3CCOCC3)cc2)n1C | 11.5
37 | COc1ccc(Oc2nc3c(c(=O)n(C)c(=O)n3C)n2Cc2cccc(OC)c2)cc1 | 10.1
38 | Cc1cccc2c1Sc1ccccc1CC2=O | 4.66

Row | Compound | hERG current change (%, negative = inhibition) at 1uM [%]
39 | COc1ccc(CN2CCN(C(=O)Cc3ccccc3)CC2)c(OC)c1 | -6.17
40 | Cc1cc(N2CCCC2)nc(SCC(=O)c2ccccc2)n1 | 10.8
41 | COc1ccc(/C=C/C(=O)c2ccc(O)cc2)cc1CN1CCOCC1 | -0.668
42 | Brc1ccc(-c2csc(NC3=NCCCCC3)n2)cc1 | 2.39
43 | CCN(CC(=O)NCc1cccs1)S(=O)(=O)c1ccccc1Cl | 9.29
44 | Cc1nc(-c2ccccn2)sc1C(=O)Nc1ccc(Cl)c(Cl)c1 | -9.41
45 | Cc1cc(C)c2cc(C#N)c(SCC(=O)NCc3ccco3)nc2c1 | 8.51
46 | COc1ccc(OC)c(C2CC(=O)N3CN(c4ccccc4)CSC3=C2C#N)c1 (centres unmarked) | 11.2
47 | COc1ccc(CNCc2cc(Cl)ccc2O)cc1.Cl | 1.1
48 | COc1ccc(CCN=C(N)NS(=O)(=O)c2ccc(C)cc2)cc1OC | 1.59
49 | O=C(CN1C(=O)NC2(CCCCCC2)C1=O)NCc1ccco1 | 12.2
50 | COc1cc(CNCCc2c[nH]c3ccccc23)cc(OC)c1.O=C(O)C(=O)O | 5.07
51 | COc1cc2cc(CCOC(=O)N3CCCCC3)oc(=O)c2cc1OC | 8.94
52 | COc1cccc(C(=O)N2CCN(Cc3cc(Br)ccc3OC)CC2)c1.O=C(O)C(=O)O | -3.91
53 | COCCCNC(=O)CCCOc1ccccc1 | -0.627
54 | Cc1ccc(N2CC(C(=O)N3CCC(C(=O)Nc4nnc(C(C)C)s4)CC3)CC2=O)cc1 (centres unmarked) | 12.4
55 | O=C(COc1ccccc1[N+](=O)[O-])Nc1ccc(CN2CCOCC2)cc1 | -1.3
56 | COc1ccc(NC(=O)c2c(OC)cccc2OC)c(OC)c1 | 10.4
